Data as given in article PMC8519427, “High affinity associations with α-SNAP enable calcium entry via Orai1 channels” (PLoS ONE, 2021).

Target: T1, human α-SNAP with an Avitag and a C-terminal 6xHis tag (human, UniProt P54920 1-295, biotin (in vitro biotinylated using BirA ligase; Avitag))
T1 construct: alpha-soluble NSF attachment protein (α-SNAP), human, amplified from HEK 293 cDNA; The methods describe a single preparation; The biotinylated protein was captured on streptavidin tips for BLI; also called biotinylated α-SNAP; Avi-Tagged human α-SNAP; source: E. coli LEMO21(DE3), pET28b, purified; in vitro biotinylated with BirA ligase; not shown: Avitag, C-terminal, kept
T1 sequence (looked up): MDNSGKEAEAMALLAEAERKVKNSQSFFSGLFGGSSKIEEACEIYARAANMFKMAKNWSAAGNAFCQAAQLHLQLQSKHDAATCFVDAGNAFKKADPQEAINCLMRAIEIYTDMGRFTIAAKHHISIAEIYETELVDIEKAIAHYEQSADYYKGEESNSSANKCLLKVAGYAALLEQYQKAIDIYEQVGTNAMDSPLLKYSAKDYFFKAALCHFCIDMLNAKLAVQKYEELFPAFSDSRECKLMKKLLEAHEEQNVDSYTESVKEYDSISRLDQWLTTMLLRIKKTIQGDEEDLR
Assay: BLI; Octet RED96, 25°C; 0.25 μM biotinylated α-SNAP loaded on streptavidin biosensor tips; analyte: purified Orai1 or Stim1 fragments at varying concentrations; PBS with 2 mg/ml BSA and 0.02% Tween-20; association 5 min, dissociation 10 min; double referencing; global fit to the 1:1 or 2:1 binding model
Conditions: both partners purified

B1: Stim1 […], untagged (domain or fragment)
chain: not shown
notes: Stim1, human, […], amplified from the human YFP-Stim1 plasmid; Sub-cloned in the pSUMO vector; The SUMO tag was removed with Ulp1 and trapped on a HisTrap column; also called soluble Stim1 […]; purified human Stim1 […]; source: E. coli LEMO21(DE3), purified (HisTrap, Ulp1 cleavage, second HisTrap, ion exchange)
A Kd of 0.158 ± 0.0012 µM, a koff of 0.000422 s⁻¹ and a kon of 2680 ± 12.5 M⁻¹ s⁻¹ were found for B1 in this work.
